We go through five substances from publication PMC5215869.

By UniProt entry, the sequences of proteins in these tests, tags left out.
UniProt O14746: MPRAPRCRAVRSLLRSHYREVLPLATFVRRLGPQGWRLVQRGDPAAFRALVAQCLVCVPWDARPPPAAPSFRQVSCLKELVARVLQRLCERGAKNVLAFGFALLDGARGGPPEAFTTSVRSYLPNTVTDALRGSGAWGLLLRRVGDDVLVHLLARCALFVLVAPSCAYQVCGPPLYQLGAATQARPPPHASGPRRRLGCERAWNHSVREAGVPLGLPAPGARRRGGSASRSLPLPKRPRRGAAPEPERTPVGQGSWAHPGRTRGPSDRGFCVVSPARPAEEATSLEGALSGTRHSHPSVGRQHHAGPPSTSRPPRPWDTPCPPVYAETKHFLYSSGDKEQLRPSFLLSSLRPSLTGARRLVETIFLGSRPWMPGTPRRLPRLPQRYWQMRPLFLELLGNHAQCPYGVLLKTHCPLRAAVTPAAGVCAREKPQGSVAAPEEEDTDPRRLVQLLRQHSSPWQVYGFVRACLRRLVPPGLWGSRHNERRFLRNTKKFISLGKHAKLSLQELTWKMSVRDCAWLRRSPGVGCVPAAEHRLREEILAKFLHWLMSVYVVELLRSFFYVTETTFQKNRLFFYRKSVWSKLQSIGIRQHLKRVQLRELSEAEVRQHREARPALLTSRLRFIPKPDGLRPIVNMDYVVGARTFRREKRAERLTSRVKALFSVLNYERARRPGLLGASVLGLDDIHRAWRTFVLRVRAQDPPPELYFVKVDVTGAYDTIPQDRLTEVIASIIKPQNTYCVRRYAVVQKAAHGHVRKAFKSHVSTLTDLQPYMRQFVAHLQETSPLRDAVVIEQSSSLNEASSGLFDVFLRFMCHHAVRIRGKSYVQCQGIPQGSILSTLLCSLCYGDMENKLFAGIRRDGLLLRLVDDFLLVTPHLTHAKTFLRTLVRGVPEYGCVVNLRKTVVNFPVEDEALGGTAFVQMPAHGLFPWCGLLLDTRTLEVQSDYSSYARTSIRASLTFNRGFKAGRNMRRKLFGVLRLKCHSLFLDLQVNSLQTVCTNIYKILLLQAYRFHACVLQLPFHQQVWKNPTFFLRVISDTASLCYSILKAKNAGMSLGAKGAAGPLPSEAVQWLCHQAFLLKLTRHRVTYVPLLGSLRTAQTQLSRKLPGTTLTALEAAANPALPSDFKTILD

The target in test [1] is endogenous TERT (120 kD full length) of Huh 5-15NS replicon cells (human (endogenous in Huh 5-15NS)) (UniProt O14746). Briefly: co-IP; lysates of log-phase Huh 5-15NS replicon cells; IP with anti-TERT (C-terminal specific) or anti-NS3 antibody, Western blot with specific antibodies; some lysates treated with RNAase A or H, DNAase I or ethidium bromide before IP, without effect (Fig 3B, 3D). Background: A replicon is a self-replicating genome or part of one, used to study replication in cells.

In test [2] the target is TERT in vector transfected HEK-293 cells (Fig 3C) (human) (UniProt O14746). Briefly: co-IP; lysates of vector transfected HEK-293 cells; IP with anti-TERT or anti-NS3 antibody, Western blot with specific antibodies (Fig 3C). (In general: A western blot detects proteins with antibodies after separation by electrophoresis.)
The target in test [3] is HCV NS3-4A protease-helicase, genotype 1b (Con1), from pcDNA3.1 (Hepatitis C virus genotype 1b (Con1)) (UniProt Q9WMX2). Nature of the test: co-IP; HEK-293 cells co-transfected with N-FLAG TERT (whole or fragments) and a viral protein vector; lysates immunoprecipitated with antibody to the viral protein, Protein G agarose, 4°C; Western blot with anti-FLAG (Fig 3A, Fig 4B).

Test [4] addresses N-FLAG NS5A of HCV (Hepatitis C virus (genotype not stated for this construct)) (UniProt Q9WMX2). The description is as above.
Test [5] deals with HCV NS3-4A protease-helicase, genotype 1b (Con1), from pcDNA3.1 (Hepatitis C virus genotype 1b (Con1)) (UniProt Q9WMX2). Briefly: co-IP; lysates of vector transfected HEK-293 cells; IP with anti-TERT or anti-NS3 antibody, Western blot with specific antibodies (Fig 3C).
Test [6] has as its target HCV NS3-4A of Huh 5-15NS sub-genomic replicon cells (genotype 1b) (Hepatitis C virus genotype 1b) (UniProt Q9WMX2). Briefly: co-IP; lysates of log-phase Huh 5-15NS replicon cells; IP with anti-TERT (C-terminal specific) or anti-NS3 antibody, Western blot with specific antibodies; some lysates treated with RNAase A or H, DNAase I or ethidium bromide before IP, without effect (Fig 3B, 3D).

Results are given in words; binding and its absence hold for the method and conditions named. Binding seen in cells or lysates may run through a third protein. Some results given as binding are weak or reduced against the parent protein; the word gives no strength.

Turning to “HCV NS3-4A of Huh 5-15NS sub-genomic replicon cells (genotype 1b) (from UniProt Q9WMX2 1027-1657; Q9WMX2 1658-1711) (complex)”, the binding entry in test [1] is listed as “binds”. With “HCV NS3-4A protease-helicase, genotype 1b (Con1), from pcDNA3.1 (from UniProt Q9WMX2 1027-1657; Q9WMX2 1658-1711) (complex)”, the binding entry in test [2] is listed as “binds”. Regarding “N-FLAG-labelled full length human telomerase reverse transcriptase (TERT) (from UniProt O14746 1-1132)”, the binding result in test [3] is recorded as “binds”; in test [4], “no binding”. For the substance “TERT in vector transfected HEK-293 cells (Fig 3C) (from UniProt O14746 1-1132)”, the binding entry in test [5] was “binds”.

Regarding “endogenous TERT (120 kD full length) of Huh 5-15NS replicon cells (from UniProt O14746 1-1132)”, the binding entry in test [6] was “binds”.
